This sample is rich in variants without activity.
B1: TPR 5TU (parent)
chain: GGAUCUUCUCGAUCUAACAAAAAAGACAAAUCUGCCACAAAGCUUGAGAGCAUCUUCGGAUGCAGAGGCGGCAGCCUUCGGUGGCGCGAUAGCGCCAACGUUCUCAACUAUGACACGCAAAACGCGUGCUCCGUUGAAUGGAGUUUAUCAUG

Variants of: B1
Assay: polymerase ribozyme fitness, log enrichment relative to wild type (log ratio); higher = more active; in vitro selection for triplet polymerase activity
Method in brief: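 Frozen incubation at −7 °C formed the core of a single, triplicate in vitro selection round applied to PCR-built, transcribed mutant libraries of each subunit of a heterodimeric triplet polymerase ribozyme. Extended constructs were gel-excised, captured with streptavidin beads and amplified by RT-PCR, and input and output libraries were Illumina-sequenced with a filter of ≥10 input reads and ≥1 read per output. Fitness is the logarithm of genotype enrichment relative to wild-type enrichment, with inverse-variance-weighted replicate averaging, and the logarithm is base 2.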

| Variant | polymerase ribozyme fitness (log ratio) |
| --- | --- |
| C75G G83A A121C | ≤ -4.2 |
| G83A U101G A106U U145C | -2.55 |
| C75G U82G G94A C96A C105G U109A | ≤ -4.2 |
| U77G C93A C149A | ≤ -4.2 |
| U82G C118G | -1.09 |
| G81C G94U C118G G126A U146G A150G | ≤ -4.2 |
| C79G A91U A142C U148C | ≤ -4.2 |
| C76U G88U A91C C93U G140C | ≤ -4.2 |
| C76A U104A C125A A142C U144A | ≤ -4.2 |
| A73G C85A G124C C129G | ≤ -4.2 |
| C79A A97G A113G A119G A150C | ≤ -4.2 |
| C79G G88U U134C A142U | ≤ -4.2 |
| C76U C85U C132U G133C | ≤ -4.2 |
| G74C C75A A106G | ≤ -4.2 |
| A73G C87A A115U C116A G143U | ≤ -4.2 |
| G80A U111G C132U | ≤ -4.2 |
| U82A U90G | ≤ -4.2 |
| C76U G84A C118U U134A G140C U151A | ≤ -4.2 |
| A73C C87U C125U | ≤ -4.2 |
| A73U C96A U109A C116U | -3.64 |
| C76A C87A C99U U151C | ≤ -4.2 |

| Variant | polymerase ribozyme fitness (log ratio) |
| --- | --- |
| U77G G94A U148C | ≤ -4.2 |
| C79U A150C | ≤ -4.2 |
| G81A C85A G136A | 0.0509 |
| G83A C85U A115U C116U | -2.68 |
| C76U C99A | -1.37 |
| U77G C93A | ≤ -4.2 |
| U82G A91G A107G U109G | ≤ -4.2 |
| C76A C85U G140C | -3.97 |
| U82A C93G U127A | ≤ -4.2 |
| A73U G83U C85U G140A A142C | ≤ -4.2 |
| C76A C87A C95U A115U G124C | ≤ -4.2 |
| G74A U135A | ≤ -4.2 |
| G83A C95U G141C U151C | ≤ -4.2 |
| G81A C118A | -1.82 |
| G83C A97U U139A G141C U151G | ≤ -4.2 |
| C79G G84A G100A A110C | ≤ -4.2 |
| C72U U139C G143A | ≤ -4.2 |
| C76G G84U U145C | ≤ -4.2 |
| U78G C85G U109C G140U | ≤ -4.2 |
| C75A C95U A98U C103U U145G U146G | ≤ -4.2 |
| A73U A107U U139G U148A | ≤ -4.2 |

| Variant | polymerase ribozyme fitness (log ratio) |
| --- | --- |
| A73C C87G G141C | ≤ -4.2 |
| U82A G92U | -0.55 |
| G74A A89C | ≤ -4.2 |
| C76G A89C G94U C108U A113U | ≤ -4.2 |
| U82C G92U A110G U135G | ≤ -4.2 |
| G74A G100U U104C U109G U146A | ≤ -4.2 |
| G83A C99A C105U U135A U144G | ≤ -4.2 |
| C76A U102G | ≤ -4.2 |
| A73G C85U G88A A119U U134A G140C | ≤ -4.2 |
| G81A A89U G112A G133U C149U | ≤ -4.2 |
| C75U U101A U104G U135C | ≤ -4.2 |
| C76A C79U C96A U139A | ≤ -4.2 |
| G80C C95U C118G | ≤ -4.2 |
| A73G G128C | -3.67 |
| U82G G92A C108G A142C | ≤ -4.2 |
| C75A C93U A97U | ≤ -4.2 |
| U78A G83A U134A U151G | ≤ -4.2 |
| C72U G86U | ≤ -4.2 |
| G83C C125A U144A | -2.36 |
| G81C C87A A138C | ≤ -4.2 |
| C76A C79A G86U | ≤ -4.2 |

| Variant | polymerase ribozyme fitness (log ratio) |
| --- | --- |
| U78C C95U C108U C116U | ≤ -4.2 |
| U82G C85U C93G C125U | ≤ -4.2 |
| U82G G128U | -3.35 |
| G83A C118G U127G | ≤ -4.2 |
| U78C C93U C99A A115C | -4.13 |
| A73U G80C C93G G124A G140A | ≤ -4.2 |
| G83A C103A C108U | ≤ -4.2 |
| C79A U90G C95G C116A A119C G141U | ≤ -4.2 |
| G80C G92U C96U U135G A150G | ≤ -4.2 |
| C75A G86U | ≤ -4.2 |
| G74C C118U | -4.02 |
| C79G U82G G92U C95G A113C A121U A137C | ≤ -4.2 |
| C75A A91U U101A | ≤ -4.2 |
| C79A C93A C95U | ≤ -4.2 |
| U82G G92U A106U C108G U127C A138G U146G | ≤ -4.2 |
| C76A U90G | ≤ -4.2 |
| A73C C95U U111C | ≤ -4.2 |
| C75A A89G C96A U146G | ≤ -4.2 |
| C75G C76G G94C C95U U104G | ≤ -4.2 |
| U77G C87G | ≤ -4.2 |
| C79U C85U A115C | ≤ -4.2 |

Source: the RNAGym collection of RNA variant scans (doi:10.1073/pnas.2313332121)
